{"source": "PubChem BioAssay AID1345083", "about": "(National Center for Advancing Translational Sciences (NCATS), 2018)", "note": "In all, about 94,000 compounds went through this assay and about 6,200 (6.6%) were called active. This list was built around the results that the source calls inconclusive (neither active nor inactive); the mix of calls is not that of the screen. The call rests on the fitted dose curve; in most records, active means well fitted inhibition curve with a large enough effect; inconclusive means small, poorly fitted or top-dose-only effect; inactive means flat fitted curve, though single readings scatter. Potencies of inconclusive entries are doubtful fits and often do not repeat. On the % scale 0 is the no-effect control and ±100 the full control effect; potency means the concentration at half of the fitted maximal effect; tags describe the fitted curve by direction and shape."}
{"assay": "Cytotoxic Profiling in HEK 293 Cell Line of Diverse Libraries Using Quantitative High-Throughput Screening; further: nearly all actives have a fitted effect of over 60% in size", "details": "HEK 293 viability, ATP luminescence (CellTiter-Glo), 48-72 h; activity change, negative = cytotoxicity: at 115 µM (top of the series) unless noted; series mostly up to 115 µM", "outline": "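CellTiter-Glo luminescence (cellular ATP) was read after 48 or 72 hr of compound exposure at 37 degree Celsius. Cells were HEK 293 plated at 250 cells/well.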"}
{"smiles": "Cn1ccnc1C(=O)N1CCCCCCNC(=O)[C@@H]2CCCC[C@@H]21", "Potency": "inconclusive: 8.91 µM [inhibitor, full curve]"}
{"smiles": "CCC(=O)Nc1cccc(C2OC(=O)N(Cc3ccc(C)cc3)C2C(=O)Nc2ccc(F)cc2)c1", "note": "(configuration not stated)", "Potency": "inconclusive: 50.1 µM [inhibitor, partial curve, poor fit]"}
{"smiles": "CC1=C[C@@H](CNCCN(C)C)[C@H](C(C)C)C[C@H]1Cc1nnc(-c2ccc(C)cc2)o1", "Potency": "active: 35.5 µM"}
{"smiles": "OC1CC(c2cc(N3CCc4c(Cl)cccc4C3)ncn2)C1", "note": "(configuration not stated)", "Potency": "inconclusive: 10 µM [inhibitor, full curve, poor fit]"}
{"smiles": "CCN1CCN(CCCNC(=O)CC2CCN(c3ccnc(NC)n3)CC2)CC1", "activity change, negative = cytotoxicity": "inactive: -27.2%"}
{"smiles": "CC1(C(=O)N2C[C@@H](Oc3ccccc3)C[C@H]2C(=O)N2CCOCC2)CCCCC1", "activity change, negative = cytotoxicity": "inactive: -8.69%"}
{"smiles": "CC(=O)Nc1cccc(-c2ccc3c(n2)CN(Cc2nc4ccccc4s2)C(=O)CO3)c1", "Potency": "inconclusive: 50.1 µM [inhibitor, partial curve, poor fit]"}
{"smiles": "COc1ccc(N2Cc3c(ncnc3N3CCC(Cc4ccccc4)CC3)N(C)CC2=O)cc1", "Potency": "inconclusive: 50.1 µM [inhibitor, partial curve, poor fit]"}
{"smiles": "O=C1CO[C@H]2CCN(Cc3ccc4c(c3)CCO4)CC[C@@H]2N1c1ccccc1", "Potency": "inconclusive: 126 µM [inhibitor, single point]"}
{"smiles": "O=C(CCC1CCN(C(=O)c2ccccc2)CC1)N1CCOCC1", "activity change, negative = cytotoxicity": "inactive: 7.13%"}
{"smiles": "Cc1nc2c(s1)C[C@@H]1[C@](C)(CO)[C@H](O)CC[C@@]1(C)[C@@H]2CC(=O)Nc1ccccc1", "activity change, negative = cytotoxicity": "inactive: -24.7% [at 172 µM]"}
{"smiles": "CN1C[C@H](O)C[C@H]1c1nc(-c2ccc(OC(F)(F)F)cc2)no1", "Potency": "inconclusive: 100 µM [inhibitor, partial curve, poor fit]"}
{"smiles": "Cn1ncc2c(C(=O)Nc3ccc(F)cc3)cc(-c3cccc(F)c3)nc21", "Potency": "inconclusive: 50.1 µM [inhibitor, partial curve, poor fit]"}
{"smiles": "Cc1cc2cc(-c3c(C)noc3C)nc(N(C)CCN(C)C)c2o1", "Potency": "active: 100 µM"}
{"smiles": "O=C1NCCCCCCN(Cc2ccncc2)[C@@H]2CN(S(=O)(=O)c3cccc(F)c3)CC[C@@H]12", "activity change, negative = cytotoxicity": "inactive: -13.6%"}
{"smiles": "Cc1ccccc1CN1Cc2nc(NCc3cccc(F)c3)ccc2OCC1=O", "Potency": "inconclusive: 50.1 µM [inhibitor, partial curve, poor fit]"}
{"smiles": "Cc1ccn(CC(=O)N2CCc3nn(Cc4ccccc4)c(=O)n3CC2)n1", "activity change, negative = cytotoxicity": "inactive: -5.02%"}
{"smiles": "FC(F)(F)c1cccc(-c2noc(-c3ccc(NCCN4CCOCC4)nc3)n2)c1", "Potency": "active: 11.2 µM"}
{"smiles": "Cc1nnc2ccc(N3CCCC(NC(=O)c4ccccc4F)C3)nn12", "note": "(configuration not stated)", "Potency": "inconclusive: 39.8 µM [inhibitor, partial curve, poor fit]"}
{"smiles": "COc1ccc(C(=O)NC2CCCc3c2[nH]c2c(Cl)cccc32)cc1OC", "note": "(configuration not stated)", "Potency": "inconclusive: 10 µM [inhibitor, full curve, poor fit]"}
{"smiles": "CCOC(=O)c1ccc(NC(=O)Cn2c(-c3cnccn3)nc(C)c(C)c2=O)cc1", "Potency": "inconclusive: 89.1 µM [inhibitor, single point]"}
{"smiles": "O=C1CCCN1CC(=O)N1CC(Oc2ccccc2-c2nc(C3CC3)no2)C1", "activity change, negative = cytotoxicity": "inactive: 7.43%"}
{"smiles": "COc1cccc(Nc2ccc3c(n2)C(C)(C(=O)NCC2CC2)CN(C)C3)c1", "note": "(configuration not stated)", "Potency": "inconclusive: 63.1 µM [inhibitor, partial curve, poor fit]"}
{"smiles": "Cn1cccc1C(=O)N1CC(n2cc(C(=O)N3CCOCC3)nn2)C1", "activity change, negative = cytotoxicity": "inactive: 0.866%"}
{"smiles": "O=C(NCCc1ccc(F)cc1)C1CCN(Cc2ccccc2-c2ccccc2F)CC1", "Potency": "active: 28.2 µM"}
{"smiles": "O=C(CCc1ccccc1)N1CCC(N2CC3CC(C2)[C@H]2CCCC(=O)N2C3)CC1", "note": "(some centres not stated)", "activity change, negative = cytotoxicity": "inactive: 1.3%"}
{"smiles": "COCCn1c(=O)c(C(=O)N2CCN(C(=O)c3ccc(OC)cc3)CC2)nc2cccnc21", "activity change, negative = cytotoxicity": "inactive: -5.39%"}
{"smiles": "CCOc1cc(=O)n2c(c1C(=O)Nc1cc(Cl)ccc1OC)CCCC2", "activity change, negative = cytotoxicity": "inactive: -61%"}
{"smiles": "Cc1cc(-c2cc3c(nc2-c2ccccc2)nc(C(=O)NC2CCN(C)CC2)n3C)ccn1", "Potency": "inconclusive: 56.2 µM [inhibitor, full curve]"}
{"smiles": "CCCCCNC(=O)c1nc2cccnc2n(CCCC)c1=O", "Potency": "inconclusive: 126 µM [inhibitor, single point]"}
{"smiles": "O=[S+]1([O-])NCC2(CCN(Cc3cccc4ccccc34)C2)Nc2ccccc21", "note": "(configuration not stated)", "Potency": "inconclusive: 50.1 µM [inhibitor, partial curve, poor fit]"}
{"smiles": "CNC(=O)[C@H]1C[C@H](Oc2ccccc2)CN1Cc1ccc(OC(F)(F)F)cc1", "Potency": "inconclusive: 89.1 µM [inhibitor, single point]"}
{"smiles": "O=C(NC1CCCCCC1)c1nc2cccnc2n(C2CC2)c1=O", "activity change, negative = cytotoxicity": "inactive: 3.14% [at 172 µM]"}
{"smiles": "CCOC(=O)C1(Cc2ccccc2C)CCCN(C(=O)c2csc(C)n2)C1", "note": "(configuration not stated)", "activity change, negative = cytotoxicity": "inactive: -16.6%"}
{"smiles": "Cn1nc(C2CCCC2)cc1NC(=O)c1ccc(Cl)cc1", "Potency": "inconclusive: 63.1 µM [inhibitor, partial curve, poor fit]"}
{"smiles": "O=c1c2cc(-c3cccs3)nn2ccn1CC(O)c1ccc(F)cc1", "note": "(configuration not stated)", "activity change, negative = cytotoxicity": "inactive: -10%"}
{"smiles": "CCOc1ccccc1C(=O)NC1CCN(c2cc(-c3ccccc3)[nH]n2)C1", "note": "(configuration not stated)", "Potency": "inconclusive: 50.1 µM [inhibitor, partial curve, poor fit]"}
{"smiles": "O=C(COc1ccc(Cl)cc1)N1CCC[C@H]1c1nc(-c2ccc(F)cc2)no1", "Potency": "inconclusive: 50.1 µM [inhibitor, partial curve, poor fit]"}
{"smiles": "FC(F)(F)c1ccc(-c2noc([C@@H]3Cc4nc[nH]c4CN3Cc3cc4ccccc4o3)n2)cc1", "Potency": "inconclusive: 50.1 µM [inhibitor, partial curve, poor fit]"}
{"smiles": "O=C(Cc1ccc(Cl)cc1)N1CCC2(CC1)CN(C1CCC1)CC2CO", "note": "(configuration not stated)", "Potency": "inconclusive: 39.8 µM [inhibitor, partial curve, poor fit]"}
{"smiles": "COc1ccc(CN2CCOc3nc(-c4cc(F)cc(OC)c4)ncc3C2=O)cc1", "Potency": "inconclusive: 56.2 µM [inhibitor, full curve, poor fit]"}
{"smiles": "O=C(Nc1ccccc1)N1CCN(c2nccc(Nc3ccccc3Cl)n2)CC1", "Potency": "active: 50.1 µM"}
